Data: PubChem BioAssay AID360 (National Center for Advancing Translational Sciences (NCATS), 2006)
The whole screen tested about 48,000 compounds, of which about 550 (1.1%) were called active. Roughly 4% stayed inconclusive and do not appear here. No stated cut-off is given here; in the data, active means potency below about 15 µM; inconclusive means mostly about 16 µM to 33 µM; inactive means weaker than that. The list shows a part of the results.

Biological target: Lysosomal acid glucosylceramidase (Homo sapiens) (UniProt P04062)
Assay: Glucocerebrosidase;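 further: the screen sought inhibitors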
Conditions: purified enzyme, resorufin glucoside fluorescence (screen aimed at inhibitors), 20 min
Method in brief: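 Normal human glucocerebrosidase (0.2 nM final) was assayed with resorufin β-D-glucopyranoside (30 uM final) in 50mM citric acid/KH2PO4, 10mM sodium taurocholate, 0.01% tween-20, pH 5.9. Compounds were titrated; fluorescence (Ex 548, Em 600) read after 20 min at RT.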
Potency means the concentration at half of the fitted maximal effect.

Chain of UniProt P04062 (P04062 whole entry, looked up): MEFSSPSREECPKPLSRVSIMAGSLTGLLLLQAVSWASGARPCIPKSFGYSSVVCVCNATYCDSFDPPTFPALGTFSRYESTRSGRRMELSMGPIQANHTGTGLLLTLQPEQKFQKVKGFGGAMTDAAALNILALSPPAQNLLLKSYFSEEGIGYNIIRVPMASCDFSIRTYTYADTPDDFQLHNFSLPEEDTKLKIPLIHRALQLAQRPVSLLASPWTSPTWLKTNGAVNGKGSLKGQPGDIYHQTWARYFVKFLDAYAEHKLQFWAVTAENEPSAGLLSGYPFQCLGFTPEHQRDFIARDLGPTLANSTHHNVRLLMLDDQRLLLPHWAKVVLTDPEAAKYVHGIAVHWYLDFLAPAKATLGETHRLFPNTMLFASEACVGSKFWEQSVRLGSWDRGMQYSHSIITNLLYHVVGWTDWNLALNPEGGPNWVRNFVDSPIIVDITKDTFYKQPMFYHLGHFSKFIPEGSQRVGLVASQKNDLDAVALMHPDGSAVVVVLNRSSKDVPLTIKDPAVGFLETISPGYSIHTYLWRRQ

Potency, inactive:
COc1ccc(NC(=O)CSc2nnc(-c3cccs3)n2-c2ccccc2)cc1 > 76.9 µM
CCOC(=O)C1C(=O)CC(C)(O)C(C(=O)OCC)C1c1ccccc1OC (stereo not given) > 76.9 µM
CC1(c2ccc(Cl)cc2)NC(=O)N(CC(=O)NC(=O)NCc2ccco2)C1=O (stereo not given) > 76.9 µM
CCCNC(=O)Cc1ccsc1 > 76.9 µM
COC(=O)c1ccc(COC(=O)c2ccc(-n3cnnn3)cc2)o1 > 76.9 µM
CCc1n[nH]c2c1C(=O)CC(C)(C)C2 > 76.9 µM
CSC(=NCCCN1CCOCC1)NS(=O)(=O)c1cccs1 > 76.9 µM
O=C(NC1CCCC1)NS(=O)(=O)c1ccccc1Cl > 76.9 µM
CCOC(=O)c1ccc(NC(=O)CCc2nc(-c3ccc(C)cc3)no2)cc1 > 76.9 µM
N#CC1=C2C=Cc3ccccc3N2CCCC1=O > 76.9 µM
COc1cc2nc(CN(C)CC(=O)Nc3ccc(N4CCOCC4)cc3)[nH]c(=O)c2cc1OC > 76.9 µM
COc1cccc(-n2cc3c(=O)n(C)c(=O)n(C)c3c2)c1 > 76.9 µM
Cn1c(C(O)c2ccc3c(c2)OCO3)nc2ccccc21 (stereo not given) > 76.9 µM
COc1ccc2c(C(=O)CN3CCN(CCO)CC3)c[nH]c2c1
COc1cc(C(=O)Oc2ccccc2)ccc1OCc1c(C)noc1C > 76.9 µM
O=C(NCc1ccccn1)c1cc2ccccc2oc1=O > 76.9 µM
OC(c1ccc(Cl)cc1Cl)C(Cc1cccnc1)n1cncn1 (stereo not given) > 76.9 µM
O=C1CC(c2ccccc2)n2ncnc2N1 (stereo not given) > 76.9 µM
CCN(CCCNC(=O)CCn1c(=O)[nH]c2ccccc2c1=O)c1ccccc1 > 76.9 µM
c1ccc(-c2n[nH]c3c2CCC3)cc1 > 76.9 µM
Cc1ccc(CN2CCN(C(=O)C3CCCO3)CC2)cc1 (stereo not given) > 76.9 µM
COC(=O)c1ccccc1NC(=O)Cn1c(-c2nonc2N)nc2ccccc21 > 76.9 µM
CCC(=O)Nc1ccc(N2CCN(Cc3ccccc3F)CC2)cc1 > 76.9 µM
Cc1nnc(SCc2ccc(F)cc2)s1 > 76.9 µM
COc1cc2[nH]c(=O)c(C(=O)NCCCN3CCCCC3)c(O)c2cc1OC > 76.9 µM
CCOC(=O)c1[nH]c2ccc(OC)cc2c1NS(=O)(=O)c1ccc(OC)cc1OC > 76.9 µM
CCOC(=O)c1ccc(Oc2c(C)oc3c(CN4CCN(C)CC4)c(O)ccc3c2=O)cc1
O=C(CN1C(=O)c2ccccc2C1=O)N1CCOCC1 > 76.9 µM
Cc1nc2ccc(NC(=O)c3c(-c4ccccc4)noc3C)cc2s1 > 76.9 µM
CC(C)OC(=O)CSc1nnc(-c2ccc(O)cc2)n1Cc1ccccc1 > 76.9 µM
CCc1cc2c(=O)c(-c3cscn3)coc2cc1OC > 76.9 µM
O=C(Cc1ccccc1)Nc1nc(-c2cccs2)cs1 > 76.9 µM
COc1cccc(C(=O)CSc2nnc(-c3cc(OC)cc(OC)c3)o2)c1 > 76.9 µM
COc1ccccc1NC(=O)C1C2CCCCC21 (stereo not given) > 76.9 µM
CC(C)Cn1c(=O)c(C(=O)Nc2ccncc2)c(O)c2ccccc21 > 76.9 µM
CCOC(=O)c1c(C)[nH]c(C(=O)Cn2nnc(-c3ccc(Cl)cc3)n2)c1C > 76.9 µM
O=S1(=O)CCN2C(=N1)Sc1c2ccc2c1CCCC2 > 76.9 µM
COC(=O)c1cn(C)c2ccc(S(=O)(=O)N3CC(C)CC(C)C3)cc2c1=O (stereo not given) > 76.9 µM
c1ccc(SCCOCCn2cncn2)cc1 > 76.9 µM
CCOC(=O)c1cc2c(C(F)(F)F)cc(-c3cccnc3)nc2o1
O=C(Nc1nccs1)c1cc2sccc2n1Cc1ccc(F)cc1 > 76.9 µM
COCCn1c(=S)[nH]c2cc(C(=O)N3CCN(c4ccccc4OC)CC3)ccc2c1=O > 76.9 µM
Cc1cccc(C)c1NC(=O)N1CCC(n2cnc3ccccc32)CC1 > 76.9 µM
Cc1cc(NC(=O)COC(=O)CCC(=O)c2ccc(F)cc2)no1 > 76.9 µM
Cn1c(=O)c(C(=O)NCCO)c(O)c2ccccc21 > 76.9 µM
CCOCCCNC(=O)C(NC(=O)c1ccc(=O)[nH]c1)c1ccccc1 (stereo not given) > 76.9 µM
C=CCN1C(=O)C(O)(CC(=O)c2c(C)n[nH]c2C)c2cc(Br)ccc21 (stereo not given) > 76.9 µM
C/C(NC1CCCCC1)=C(/C#N)C(=O)NCCN1CCOCC1 > 76.9 µM
Cc1ccccc1CN(c1ccc(C(=O)N2CCCC2)cc1)S(C)(=O)=O > 76.9 µM
O=C(CSc1ncn[nH]1)Nc1cccc2ccccc12 > 76.9 µM
O=C(c1ccco1)N1CCN(S(=O)(=O)c2cccc(C(F)(F)F)c2)CC1 > 76.9 µM
O=C(Cn1nnc2ccccc21)NCc1ccccc1 > 76.9 µM
COc1ccc(OC)c(NC(=O)c2c(NC(=O)c3ccco3)sc3c2CCC3)c1 > 76.9 µM
CCOC(=O)CNC(=O)c1ccc2c(c1)OCCO2 > 76.9 µM
CSCC[C@H](NC(=O)OC(C)(C)C)c1nnc(SCc2cccc(F)c2)o1 > 76.9 µM
Cc1c(F)cccc1NS(=O)(=O)c1ccccc1C#N > 76.9 µM
CC(C)(C)NC(=O)C(c1ccco1)N(C(=O)c1csnn1)c1ccccc1 (stereo not given) > 76.9 µM
Cc1ccc(N2C(=O)[C@@H]3C(c4ccc(F)cc4)=NO[C@@H]3C2=O)cc1 > 76.9 µM
COc1ccc(C2=NOC(C(=O)N3CCCCCC3)C2)cc1OC (stereo not given) > 76.9 µM
CCC1(CC)C(=O)C(C)(C)C(=O)OC1c1cccs1 (stereo not given) > 76.9 µM
